Where two headings read alike, the source gives them in different places.
How the values were obtained:
Caki2 = experiment: Proliferation dose-response IC50, Caki2; assay type: cell-based; conditions: Homo sapiens, CAKI-2, read-out: IC50 (μM) Caki2
Protocol: (§1) Error bars indicate standard deviation for n=2 replicates. […] To evaluate inhibition of SCD1 by these molecules, we used LC/MS to quantify changes in SCD1-catalyzed conversion of stearoyl-CoA to oleoyl-CoA in response to drug treatments in vitro using SCD1 protein extracted from murine liver (Figure 3c, Supplementary Figure 2g). […] Synthesis routes and spectral data including NMR and MS are also provided (Supplementary Figures 3-6).
(§2) Cells were seeded at 5,000 cells/well in clear-bottom 96-well plates in triplicate. Drug treatment was applied at 1:1000 in reduced serum conditions (3%). […] Alternatively, cells were plated 2x10^5/well in 12-well plates (Genesee Scientific) in triplicate prior to drug treatment. After 120-hour treatment, cell number was established using a Coulter Particle Counter (Beckman). Oleic acid-albumin (Sigma Aldrich) was added to media at 5µM, and was applied adjuvant to drug treatment. Drug stocks were prepared in DMSO (Sigma) at 1000x. IC50 dosing per cell line was calculated using CalcuSyn analytical software.

A498 = experiment: Proliferation dose-response IC50, A498; assay type: cell-based; conditions: Homo sapiens
Protocol: as §1, §2

ACHN = experiment: Proliferation dose-response IC50, ACHN; assay type: cell-based; conditions: Homo sapiens, read-out: IC50 (μM) ACHN
Protocol: as §1, §2

Caki1 = experiment: Proliferation dose-response IC50, Caki1; assay type: cell-based; conditions: Homo sapiens, CAKI-1, read-out: IC50 (μM) Caki1
Protocol: as §1, §2

[1] = target: T1, SCD1 protein extracted from murine liver (Mus musculus, UniProt P13516); experiment: In vitro SCD1 enzymatic inhibition by LC/MS (stearoyl-CoA to oleoyl-CoA, liver microsomes); assay type: biochemical
T1 construct: Microsomes were isolated from murine liver using Microsome Isolation Kit (BioVision); from tissue; host or cells: murine liver microsomes
T1 sequence (P13516 1-355): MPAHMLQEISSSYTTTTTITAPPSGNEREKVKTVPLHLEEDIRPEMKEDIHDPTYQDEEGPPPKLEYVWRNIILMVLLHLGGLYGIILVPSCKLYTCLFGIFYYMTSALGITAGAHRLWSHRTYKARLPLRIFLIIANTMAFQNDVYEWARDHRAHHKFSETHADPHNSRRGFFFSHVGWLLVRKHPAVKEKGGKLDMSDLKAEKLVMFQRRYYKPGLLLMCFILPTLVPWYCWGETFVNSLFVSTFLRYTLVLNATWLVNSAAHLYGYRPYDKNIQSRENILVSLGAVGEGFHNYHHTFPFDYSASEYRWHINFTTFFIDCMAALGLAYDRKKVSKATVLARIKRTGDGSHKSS
Text: as §1, with “After synthesis feasibility and cost analysis, we synthesized 38 of the selected compounds.” for “Error bars indicate standard deviation for n=2 replicates.”
Microsomes were isolated from murine liver using Microsome Isolation Kit (BioVision) per the manufacturer protocol. […] To quantify biotransformation of ^13C18-stearoyl CoA to ^13C18-oleoyl CoA for drug treatments relative to vehicle controls, supernatants were evaluated using the LC/MS^2 acyl CoA quantitation method of Magnes et al. and adapting selected reaction monitoring (SRM) for isotope-labeled acyl CoAs. […] SRM signal areas for isotope-labeled acyl CoAs were measured relative to the heptadecanoyl CoA I.S. using XCalibur software (Thermo), and percent enzyme inhibition determined by comparing ^13C18-oleoyl CoA quantities between treatment and DMSO control assays. […]

| Structure (SMILES) | IC50 (Caki2) | IC50 (A498; A498, read-out: IC50 (μM) A498) | IC50 (ACHN) | IC50 (Caki1) | IC50 [1] | IC50 (A498; A498, proliferative IC50, linear regression modeling of dose-response, read-out: IC50 (μM) A498) | IC50 ([1]; murine liver microsomes, LC/MS, n=2, read-out: IC50 (nM), SCD1 enzymatic inhibition) |
| --- | --- | --- | --- | --- | --- | --- | --- |
| O=C(Nc1ccc(OCc2ccccc2)nc1)N1CCN(C(=O)c2ccccc2C(F)(F)F)CC1 [SSI-2] | 2 µM | 2.5 µM | 0.25 µM | 3 µM | 23.3 nM | – | – |
| CNC(=O)c1cc(S(=O)(=O)N2CCC(Oc3ccccc3Cl)CC2)c[nH]1 [SetA.68] | – | – | – | – | – | 0.04 µM | – |
| O=C(NCc1ccnc(OCc2ccccc2)c1)N1CCN(C(=O)c2ccccc2C(F)(F)F)CC1 [SSI-3] | 23 µM | 16 µM | 4 µM | 25 µM | – | – | > 500 nM |
| CNC(=O)c1ccccc1OCC(=O)N1CCN(C(=O)c2ccccc2C(F)(F)F)CC1 [SSI-1] | 26.5 µM | 11.2 µM | 4.1 µM | 23.5 µM | – | – | – |

— publication PMC5787466, “Accelerated bottom-up drug design platform enables the discovery of novel stearoyl-CoA desaturase 1 inhibitors for cancer therapy” (Oncotarget, 2017)
